# Assay results: the supplement of paper PMC11417369
# ± gives the standard deviation of the averaged measurements. The list shows a part of the results.
# Test system: PfAP2-LT AP2 domain (GST-tagged)
# Test: gcPBM binding intensity (ln(normalized median fluorescence intensity)); higher = stronger DNA binding
# Summary of the method: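 Binding intensity values are the highest Masliner-normalised natural-log median intensity among replicate spots of either probe orientation. The binding step lasted 1 h in 1× PBS with 1% milk, 0.2 mg/ml BSA, 0.5% salmon testes DNA and 0.03% Triton X-100, using GST-tagged P. falciparum DNA-binding domains expressed in E. coli on an Agilent 4 × 180k array of primer-extended double-stranded 36-bp intergenic genomic probes plus negative controls. Alexa488 anti-GST antibody and a 488 nm scan detected bound protein.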
row,Sequence,gcPBM binding intensity (ln)
1,TTTATGTAGGAACTAACACACATTGTAAGATTCAGA [CACACA_site1998],8.8 ± 0.39
2,GGAACTTTTGGAGGTGCATGCGGAGCAATCTTTTCA [TGCATGCA_site454],8.69 ± 0.4
3,TTTAAACCTTAATATTGTACGCAAAAAAAAAAAGAA [XGTACX_site3757],8.54 ± 0.46
4,TATTAATAATTAAGTTGTACATTAATTAATATACTG [XGTACX_site6994],8.56 ± 0.46
5,TTTAATATTAATAATTGTACATTTTCATAAATACGC [XGTACX_site2837],8.62 ± 0.54
6,TAAAGGCAAACAAACACACACACATATATACATATA [CACACA_site2123],9.87 ± 0.42
7,CCAATACTGTTTAAATGTACAAGTAGGAGGTTAATT [XGTACX_site7260],8.77 ± 0.34
8,AAAAATTAACAAAAGGTGCAAACAAATAGTGGTTTT [GTGCAC_site9998],9.01 ± 0.49
9,AAAATTTAATATAATGCACACATAAAAAAAAATTCA [CACACA_site8640],8.85 ± 0.53
10,TCCTGCCTCTCTTTGGTGCGTTGTAACCCTCGAGGA,8.78 ± 0.56
11,ATATTAATATACATATGTACATATATATATATATAT [XGTACX_site7425],9.47 ± 0.057
12,TAAATTATTTATAAAGCACACAAGAAAAAATAAAAT [CACACA_site2132],8.89 ± 0.45
13,ATATATATGTATATGTGTACTTATATTTGTCATTTT [XGTACX_site1317],9.01 ± 0.47
14,AAAAAAATTAAACACACACACACATATATATATATA [CACACA_site4718],10.1 ± 0.27
15,GAACAAAAGGAATGTTGTACATAAAAAATGAAAAAT [XGTACX_site3929],8.99 ± 0.47
16,AAAAAAGTAAAAAGTGCATGTAAAATATAAGTATCT [TGCATGCA_site55],9.18 ± 0.61
17,TTTTTTTTTTATTTTGCACACTTCTAATTTAGTTGT [CACACA_site3429],9.14 ± 0.44
18,GTTATTCTTAATTTTTGTACACATTTTTATATTATT [XGTACX_site7227],9.1 ± 0.49
19,AATTCCTATAATGAGAGTACGCATTAGAACAGTAGG [XGTACX_site5721],8.88 ± 0.29

row,Sequence,gcPBM binding intensity (ln)
1,TTGATAAAAAAAAAAAAATAAAAAAAAAATAAAAAA [XGTACX_negctrl_site480],8.26 ± 0.61
2,AATAAATATATAAATACACACAAACATACAGATATA [CACACA_site6088],9.37 ± 0.35
3,TTTAAAAGATAAAGACTGCACTTTAAGCACACAAAT [GTGCAC_site9752],8.77 ± 0.33
4,TTTATATCGACTCTTCTTTATATAAGTTGTGATGTT [TGCATGCA_negctrl_site362],8.89 ± 0.38
5,TAAAGTGTAAAGAAGGTGCTCATTATTTATTTTTTT,8.6 ± 0.33
6,AGTTTCCTTGAGAAAAGTACGTAATACTACATATAT [XGTACX_site818],8.93 ± 0.43
7,AAAAAAGAAACAAACACACATACATACAAACAAACA [CACACA_site142],9.57 ± 0.23
8,TTATACTTTTTTTCTTGGTGTAGAAAAAAAAGTTAG [CACACA_negctrl_site1207],8.15 ± 0.35
9,ATATGATATATTTTATGTACATATAAAACATATATA [XGTACX_site4297],8.64 ± 0.33
10,TTTATATTAGGTCTTGAACGATTTTCATCATTATTA [TGCATGCA_negctrl_site100],8.61 ± 0.46
11,AATTAATGGAAACAAGTCAAATGATCTTTATGCATA [TGCATGCA_negctrl_site540],8.62 ± 0.4
12,AAATTGTAGAAGCGTATTTCTCGAACTGGATGAATA [CACACA_negctrl_site1373],8.71 ± 0.54
13,TAAAAACGATTTTTTGCACACACATAATAAGCAGAA [CACACA_site3870],9.29 ± 0.37
14,AAAAATGATATGAGTTGTACATAAGTAAGAATTATT [XGTACX_site7089],8.95 ± 0.47
15,GGACAAGTTAAACGCACACAAATATATACCCCCATA [CACACA_site4996],9.95 ± 0.3
16,ACAAGTAATTAAGAGTGTACATAACTATAAATCCAA [XGTACX_site5215],9.05 ± 0.54
17,TATAATAAAATATGTACACACATACACCCATATATA [CACACA_site4808],9.25 ± 0.4
18,GATATGATGAGATTGATATTCATAAGAGGATTAATG [GTGCAC_negctrl_site515],8.65 ± 0.43
19,TGTATGTATGTATTATTTGTTATTTTAATTTTTTTG [TGCATGCA_negctrl_site256],8.93 ± 0.47

row,Sequence,gcPBM binding intensity (ln)
1,TTTTTTTTTTTTGTGCGTACATACCATTTTAATAAT [XGTACX_site2760],8.73 ± 0.4
2,CTTTTTTCAAAACACACACACAAGAAAATATATATA [CACACA_site3109],9.31 ± 0.3
3,GAGATTTATTTATGTGCACACTAGAACAATTGGATC [CACACA_site2090],9.11 ± 0.38
4,AAGACATTTTTTAAGGTGCTTTGGAAAAAGGAGTAT [GTGCAC_site9816],8.64 ± 0.39
5,TATTATATATCAAAATGTACATTAATTTGAGTAATT [XGTACX_site5434],8.51 ± 0.33
6,GATGTGATGTATTTGGTATTTTTCGATGTTGGTAGG [CACACA_negctrl_site355],9.15 ± 0.27
7,TGTTCAGTAGGGCACACACACAACAAAATAAAAAAA [CACACA_site378],9.56 ± 0.48
8,TTTTTGCTATTCTATTATATATATAATATATTTTAC [CACACA_negctrl_site262],8.79 ± 0.48
9,TTACCTCTTTGAAATATACACACTAATCATATCAAC [CACACA_site8778],8.85 ± 0.47
10,ATGAGTTACATGGGAAAAATATATATATATATATAT [CACACA_negctrl_site579],9.8 ± 0.23
11,TTGTATCCTTAATGCATGCACCAAATAACAAAAGTA,8.71 ± 0.29
12,TTTAAAAGATAAAACACACATACTAATAAAAAACAA [CACACA_site2556],8.88 ± 0.47
13,TTGTTGTATTATTTATGTACATATGTATATGTATAT [XGTACX_site1315],9.02 ± 0.44
14,TGATAAATATGGAGCACACACACATAAACATACATA [CACACA_site420],9.86 ± 0.4
15,ACAGTATTTCGAGATGGTACACATATATATATATAT [XGTACX_site6880],9.9 ± 0.13
16,AAAAAAAAAAAAAAAAGGGGGGGAGGGATTGAAAAA [CACACA_negctrl_site193],9.4 ± 0.29
17,AATGAGGATATATACACACATACATTAAAAAAATAT [CACACA_site1849],9.29 ± 0.46
18,ATTATAATTGCATATACACACAAAGGTTCATAACAA [CACACA_site7440],8.93 ± 0.38
